Assay results as given in PubChem BioAssay AID686979 (National Center for Advancing Translational Sciences (NCATS), 2013).
Where “and” joins values, the source holds several entries; their conditions need not be identical. Equal values may be shown once. Hit rate of the full screen: of about 420,000 compounds, about 50,000 (12%) were called active. Inconclusive means that the source gave no clear call. Such entries were picked first, then a sample of the others. Calls come from the whole dose curve; as a rule, active = well fitted inhibition curve with a large enough effect; inconclusive = small, poorly fitted or top-dose-only effect; inactive = flat fitted curve, though single readings scatter. Potencies beside an inconclusive call are fits to weak or partial responses and may not hold up.

Assay: qHTS for Inhibitors of human tyrosyl-DNA phosphodiesterase 1 (TDP1): qHTS in cells in presence of CPT; note: nearly all actives have a fitted effect of over 55% in size
Conditions: chicken DT40 Tdp1-/-;hTDP1 cells + 20 nM CPT, ATP luminescence, 48 h; activity change, negative = growth inhibition: at 46.2 µM (top of the series) unless noted
In short: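 Chicken DT40 Tdp1-/- cells complemented with human TDP1, 400 cells/well, exposed to compounds plus 20 nM camptothecin for at least 48 h at 37 C; viability read as ATP content by CellTiter-Glo luminescence.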
% is set by controls: 0 for no effect and ±100 for the full control effect; potency is the fitted concentration of half-maximal effect; tags give direction and shape of the fitted curve.

Row | Structure (SMILES) | Potency | activity change, negative = growth inhibition
1 | CCN1CCN(c2cc(N3CCc4ccccc4C3)c(F)cc2[N+](=O)[O-])CC1 | active: 16.4 µM | –
2 | CCOC(=O)c1ccccc1O | inactive | –
3 | CC1CCN(S(=O)(=O)c2ccc(NC(=O)CCNC(=O)c3ccc(Cl)cc3)cc2)CC1 | – | inactive: -3.41%
4 | O=C1CSC(c2ccccc2[N+](=O)[O-])N1c1ccccc1 (stereo unspecified) | – | inactive: 4.36%
5 | NCCNc1ccc([N+](=O)[O-])c(Sc2nc3ccccc3[nH]2)c1 | inconclusive: 25.9 µM [inhibitor, single point] | –
6 | COc1cc(C2C(C#N)=C(N)N(c3cccnc3)C3=C2C(=O)CCC3)ccc1O (stereo unspecified) | – | inactive: -0.623%
7 | COc1ccccc1C(=O)NNC(=O)c1sccc1-n1cccc1 | – | inactive: -5.18%
8 | COc1ccc(CNC(=O)CN(Cc2ccco2)C(=O)CNS(=O)(=O)c2ccccc2)cc1 | inconclusive: 6.51 µM [inhibitor, single point] | –
9 | CCOC(=O)N1CCN(S(=O)(=O)c2cc(C)c(C)cc2C)CC1 | – | inconclusive: -33.6% [inhibitor]
10 | Cc1ccc2c(c1)cc(CN(Cc1ccco1)C(=O)COc1ccccc1)c1nnnn12 | inconclusive: 29.1 µM [inhibitor, single point] | –
11 | COc1ccc(NC(=O)CCc2c(C)nc3nc(CNC(=O)c4cccc(F)c4)nn3c2C)cc1OC | – | inactive: -0.101%
12 | Cc1ccc(C)c(CSc2ccc3nnc(-c4ccccn4)n3n2)c1 | inconclusive: 29.1 µM [inhibitor, single point] | –
13 | CC(=O)Nc1ccc(S(=O)(=O)N2CCC(n3c(C(F)(F)F)nc4cccnc43)CC2)cc1 | – | inconclusive: -32.8% [inhibitor]
14 | CO[C@@H]1[C@@H](O[C@@H]2O[C@H](C)[C@@H](O[C@H]3C[C@@](C)(O)[C@@H](OC(=O)CC(C)C)[C@H](C)O3)[C@H](N(C)C)[C@H]2O)[C@@H](CC=O)C[C@@H](C)C(=O)/C=C/C2OC2C[C@@H](C)OC(=O)C[C@H]1OC(C)=O (stereo partly specified) | active: 3.76 µM | –
15 | Cc1ccc(-c2cc(-c3ccccc3)c(C#N)c(Br)n2)cc1 | – | inactive: -8.56%
16 | COC(=O)c1c(C)oc2ccc(N(C(=O)c3ccncc3)S(=O)(=O)c3ccccc3)cc12 | inconclusive: 29.1 µM [inhibitor, single point] | –
17 | COc1ccc(CNC(=O)CC(C)S(=O)(=O)c2ccc3c(c2)NC(=O)CO3)cc1 (stereo unspecified) | – | inactive: -11.8%
18 | CCOC(=O)c1c(C)[nH]c(C)c1C(=O)CSc1nc2ccccc2c(=O)n1-c1ccc(F)cc1 | inconclusive: 18.4 µM [inhibitor, single point] | –
19 | c1ccc(CSCc2nc3ccccc3[nH]2)cc1 | inconclusive: 20.6 µM [inhibitor, single point] | –
20 | COc1cccc(C(CC(=O)Nc2cccc3ccccc23)NC(=O)c2ccccc2)c1 (stereo unspecified) | inconclusive: 23.1 µM [inhibitor, partial curve] | –
21 | COc1cccc(-c2cc(C(=O)Nc3cc(Cl)ccc3O)on2)c1 | – | inactive: -21.9%
22 | CCOc1cccc2sc(N(CCN(C)C)C(=O)/C=C/c3cccs3)nc12 | active: 7.31 µM | –
23 | CC(=O)N1CCN(C(=O)c2ccc(S(=O)(=O)Nc3ccccc3F)cc2)CC1 | – | inactive: -4.29%
24 | O=C(CSc1nc(-c2ccco2)cc(C(F)(F)F)n1)NC1CCCCCCC1 | inconclusive: 25.9 µM [inhibitor, single point] | –

Row | Structure (SMILES) | Potency | activity change, negative = growth inhibition
25 | CN(CC(=O)Nc1ccccc1Br)C(=O)c1ccccc1OCc1ccc(F)cc1 | inconclusive: 16.4 µM [inhibitor, single point] | –
26 | CC(=O)c1cccc(NC(=O)C2CCCN2S(=O)(=O)c2cccc3cccnc23)c1 (stereo unspecified) | inconclusive: 29.1 µM [inhibitor, single point] | –
27 | O=C(O)c1ccc(C[n+]2c(-c3ccccc3)csc2Nc2ccccc2)cc1 | – | inactive: -0.582%
28 | O=C(O)CSc1ccc(NC(=O)Nc2ccccc2F)cc1 | inconclusive: 13 µM [inhibitor, partial curve] | –
29 | Cc1cc(OCC(=O)NCCc2ccc(S(N)(=O)=O)cc2)c2c(C)cc(=O)oc2c1 | – | inactive: -3.69%
30 | O=C(NCCO)c1ccc(-c2cnc3cccnn23)cc1 | inconclusive: 20.6 µM [inhibitor, partial curve, poor fit] | –
31 | COc1cccc(/C=N\NC(=O)c2ccc(C)nc2)c1 | – | inactive: 3.6%
32 | OCCNCc1ccc(OC2CCCC2)cc1 | – | inconclusive: -31.9% [inhibitor]
33 | Cc1ccccc1-n1c(SCc2ccc(Cl)cc2)nc2[nH]ncc2c1=O | active: 16.4 µM | –
34 | Cc1cc(C)c2c(C)c(C(=O)Nc3c(C)n(C)n(-c4ccccc4)c3=O)oc2c1 | inconclusive: 23.1 µM [inhibitor, single point] | –
35 | COc1ccc(NC(=O)NCCN2CCN(c3ccc(C)cc3)CC2)c(Cl)c1 | – | inactive: -18.8%
36 | Cc1cccc(C)c1NC(=O)c1sccc1SCc1cccc(C(F)(F)F)c1 | active: 16.4 µM | –
37 | CCN(CC)CCCNC(=O)c1c(O)c2c([nH]c1=O)CCCC2 | – | inconclusive: -33.5% [inhibitor]
38 | Oc1ccc(N=Nc2ccc3c(c2)OCCO3)c(O)c1 | inconclusive: 20.6 µM [inhibitor, single point] | –
39 | COc1ccc(-c2cc3c(c4c2ccn4C)C2CCC3C2)cc1F (stereo unspecified) | inconclusive: 16.4 µM [inhibitor, single point] | –
40 | Cc1ccc2nc(Nc3ccccc3O)nc(-c3ccccc3)c2c1 | – | inactive: -22.7%
41 | Cc1c(-c2ccc(O)cc2)nn(-c2ccc(O)cc2)c1-c1ccc(OCCN2CCCCC2)cc1 | active: 18.8 µM | –
42 | Nc1nnn(CC(=O)N/N=C/c2cn[nH]c2-c2ccccc2)n1 | – | inactive: 4.11%
43 | Cc1ccc(Cn2ncc3c(N4CCOCC4)ncnc32)cc1 | inconclusive: 23.1 µM [inhibitor, single point] | –
44 | CCOc1ccc2[nH]c(=O)c(CN(Cc3nnnn3Cc3ccco3)C3CCCCC3)cc2c1 | inconclusive: 29.1 µM [inhibitor, single point] | –
45 | O=[N+]([O-])c1ccccc1Nc1ccccc1 | – | inactive: -7.85%
46 | COc1ccc(Cl)cc1N=Nc1ncc[nH]1 | inconclusive: 11.9 µM [inhibitor, single point] and inconclusive: 18.4 µM [inhibitor, single point] | –
47 | Brc1ccc(/C=C/C=N/Nc2nc3ccccc3s2)cc1 | inconclusive: 20.6 µM [inhibitor, single point] | –
48 | COC(=O)c1ccc(C(NC(=O)OCc2ccccc2)/C(F)=C/[C@@H](C)C(=O)NCc2ccc(OC)c(OC)c2)cc1 (stereo partly specified) | active: 23.1 µM | –

Row | Structure (SMILES) | Potency | activity change, negative = growth inhibition
49 | Nc1ccc(/C=C/c2cc(Cl)nc3ccccc23)cc1 | active: 3.98 µM | –
50 | Cc1ccc(-c2nnc(OCC3CCCO3)c3ccccc23)cc1 (stereo unspecified) | inconclusive: 29.1 µM [inhibitor, single point] | –
51 | Cc1ccc(C(=O)Nc2nc(-c3ccc([N+](=O)[O-])cc3)cs2)o1 | active: 14.6 µM | –
52 | COc1ccc(CCC(=O)Nc2ccc(C)c(S(=O)(=O)N(C)C)c2)cc1OC | inconclusive: 29.1 µM [inhibitor, single point] | –
53 | CCOCCCNc1ccc(-c2ccccc2)nn1 | inconclusive: 20.6 µM [inhibitor, single point] | –
54 | COc1ccc(-c2sc3ccc(-c4ccc5c(c4)OCO5)cc3c2-c2ccc(OC)nc2)cc1 | inconclusive: 14.6 µM [inhibitor, partial curve] | –
55 | O=C(NCCc1c[nH]c2ccc(Cl)cc12)c1cccnc1 | inconclusive: 16.4 µM [inhibitor, partial curve, poor fit] | –
56 | COCC(C)n1c(SCC(=O)N2CCCCC2)nc2ccccc2c1=O (stereo unspecified) | inconclusive: 20.6 µM [inhibitor, single point] | –
57 | Cc1ccccc1Oc1ccc2c(c1)[C@@H]1C[C@H](N(C)C(=S)Nc3ccc(F)cc3)[C@H]([C@H](C)O)C(=O)N1CC2 | active: 20.6 µM | –
58 | S=c1[nH]nc(C2CCCCC2)n1/N=C/c1c(Cl)cccc1Cl | inconclusive: 18.4 µM [inhibitor, partial curve, poor fit] | –
59 | O=S(Cc1ccc(Br)cc1)Cc1nnc(SCc2ccc(Br)cc2)n1-c1ccccc1 (stereo unspecified) | active: 11.6 µM | –
60 | COc1ccc(C2=NOC(Cn3nc(-c4ccccc4)cc3C(=O)NCc3cccc(Br)c3)C2)cc1 (stereo unspecified) | inconclusive: 25.9 µM [inhibitor, partial curve] | –
61 | Cc1ccc(S(=O)(=O)N2CCN(C(=O)C(C)Cn3nc(C)c(C)c3C)CC2)cc1 (stereo unspecified) | – | inactive: -11.5%
62 | Cc1nnc(SCc2nc(N)nc(Nc3ccccc3)n2)s1 | – | inactive: -24.4%
63 | O=[N+]([O-])c1c(Nc2ccc(O)cc2)cc(Cl)c2nonc12 | active: 1.3 µM | –
64 | COc1ccc(CCN2C(=O)c3ccccc3C2c2nnnn2-c2ccc3c(c2)OCCO3)cc1OC (stereo unspecified) | – | inactive: -18.1%
65 | COc1ccc(-c2c3c(=O)n(C)c(=O)n(C)c3c3c(C)nc4ccccc4n23)cc1 | inconclusive: 29.1 µM [inhibitor, single point] | –
66 | CCCc1cc(-c2nc(-c3ccc(Br)cc3)cs2)ccn1 | inconclusive: 20.6 µM [inhibitor, single point] | –
67 | CCn1c(SCC(=O)NNC(=S)Nc2ccccc2)nnc1-c1ccc(Cl)cc1 | inconclusive: 29.1 µM [inhibitor, single point] | –
68 | CC(C)(C)c1ccc(-c2nc(SCCCOc3ccccc3)n3[nH]c(=O)cc3n2)cc1 | inconclusive: 29.1 µM [inhibitor, single point] | –
69 | Cn1nnc2c(N3CCN(c4ccccc4Cl)CC3)ncnc21 | inconclusive: 5.8 µM [inhibitor, partial curve] | –
70 | CC(=O)Nc1ccc(NC(=O)COc2cc(C)cc3oc(=O)cc(C)c23)cc1 | – | inactive: -10.6%
71 | Cc1ccc2nc(NC(=O)C3CCN(S(=O)(=O)c4cnc[nH]4)CC3)sc2c1 | inconclusive: 20.6 µM [inhibitor, single point] | –
